Data reported in publication PMC12136788.
The list shows a part of the results.

B1: chr1:45741042:45741143:-|CDS|ENSG00000197429|msi1|total|mutant (ssRNA)
RNA: GGGAGUUCUACAGUCCGACGAUCUGCCAUGAUCUCUUGGAAUUCUCAGAAAACUACAUUCAUGUCCAUUUCUUGGAGGUUCACCGUGGAGAAGAGUUCCUGGCACUUACGAAAGAUCAGCUGAUCAAAAUUUUGCGAAGUGAACAACAGAGGAUUGAGCAUCA
B2: chr7:137227872:137228000:-|3pUTR|ENSG00000105894|msi1_unk|FALSE|overlapping (ssRNA)
RNA: GGGAGUUCUACAGUCCGACGAUCGGAACAUAAAAAGGACAUCAGCAAACAGGAUCAGUUAACUAUUGCAUUUAUAUGUACCGUAGGCUUUGUAUUCAAAAAUUAUCUAUAGCUAAGUACACAAUAAGCAAAAACAAAAAGAAACAACAGAGGAUUGAGCAUCA
B3: ENSG00000106080:stop:overlap|stop_codon|ENSG00000106080|stop_codon|NA|stop_codon (ssRNA)
RNA: GGGAGUUCUACAGUCCGACGAUCAUGAAGACAAAGAUGGGUUUAUAUCUGCCAGAGAAUUUACAUAUAAACACGAUGAGUUAUAGAGAUACAUCUACCCUUUUAAUAUAGCACUCAUCUUUCAAGAGAGGGCAGUCAUCUUUACAACAGAGGAUUGAGCAUCA
B4: chr20:3868059:3868160:+|3pUTR|ENSG00000088888|unk|total|mutant (ssRNA)
RNA: GGGAGUUCUACAGUCCGACGAUCUCAGCCUCCAGGGAUCUACACCCUGCCUUGGCUGCUACAGCUUUUUCACUCCACUGCCCCCGGGGAGUUCAGCAACCUAAUGAUCUCUAUCUCUGAACAUCUCUUCAUCCCAUGCUCCAACAACAGAGGAUUGAGCAUCA
B5: chr9:37862824:37862925:+|3pUTR|ENSG00000122741|unk|total|mutant (ssRNA)
RNA: GGGAGUUCUACAGUCCGACGAUCUAUGCACCCGCCUUGCCCUCUCCGGUUGCAUUCUCUUCCGGCCACUGGUUCUCAAACAUCCGGGUGCACUGUAACCAUUACAGAGCUUGUGAAAAGUGCAGAAACCUGAGCCUCACCUUACAACAGAGGAUUGAGCAUCA
B6: chr22:21921976:21922077:-|3pUTR|ENSG00000100034|msi1|FALSE|unique (ssRNA)
RNA: GGGAGUUCUACAGUCCGACGAUCGACUGCAGUGGGCUCGGAUAGGCCCAUUGAGGUUUUUAGAAAAGCAGGAUUUGUUUUGUUAGGGAGGCAUGAUUUUGGUGAGAUCUUUCUGGAAGAGUUUUCCGCCUCUUUGUGAUGCUGCAACAGAGGAUUGAGCAUCA

Biological target: MSI1 full-length (mouse, UniProt Q61474 1-362)
Assay: nsRBNS (natural sequence RNA bind-n-seq); RBNS binding buffer (assumed for nsRBNS): 25 mM Tris pH 7.5, 150 mM KCl, 3 mM MgCl2, 0.01% Triton X-100, 500 ug/ml BSA, 20 U/ml SUPERase-In, 4 C; UNK is unkempt and MSI1 is Musashi-1; names of the RNAs are library labels; protein concentration not given here; high values mean tight binding

Chain of UniProt Q61474 (Q61474 whole entry): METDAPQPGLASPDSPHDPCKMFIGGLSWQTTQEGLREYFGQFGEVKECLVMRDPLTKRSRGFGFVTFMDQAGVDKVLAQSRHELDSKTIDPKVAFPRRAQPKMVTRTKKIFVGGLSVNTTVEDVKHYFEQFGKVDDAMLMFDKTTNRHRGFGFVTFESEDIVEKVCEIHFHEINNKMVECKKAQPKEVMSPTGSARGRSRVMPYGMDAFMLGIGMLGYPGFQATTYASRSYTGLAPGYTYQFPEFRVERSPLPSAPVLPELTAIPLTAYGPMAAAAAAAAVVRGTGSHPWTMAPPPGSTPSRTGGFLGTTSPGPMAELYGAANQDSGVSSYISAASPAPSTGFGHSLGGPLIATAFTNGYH

Binder | binding signal [enrichment R]
B1 | 0.181
B2 | 2.29
B3 | 1.32
B4 | 0.647
B5 | 0.381
B6 | 0.64
